In all, about 33,000 sequences were measured (“E-score (-0.5 to 0.5)”: median about -0.043, highest 2% from about 0.37 on). This is one part of the list.
Each sequence was assayed against T1, Upc2 (UniProt Q12151) (assay: PBM E-score (8-mer binding enrichment) (E-score (-0.5 to 0.5)); higher = stronger / more preferred TF binding; most listed sequences are background and not binding sites). Conditions: protein concentration: 200 nM; construct: GST-full length.
T1 sequence: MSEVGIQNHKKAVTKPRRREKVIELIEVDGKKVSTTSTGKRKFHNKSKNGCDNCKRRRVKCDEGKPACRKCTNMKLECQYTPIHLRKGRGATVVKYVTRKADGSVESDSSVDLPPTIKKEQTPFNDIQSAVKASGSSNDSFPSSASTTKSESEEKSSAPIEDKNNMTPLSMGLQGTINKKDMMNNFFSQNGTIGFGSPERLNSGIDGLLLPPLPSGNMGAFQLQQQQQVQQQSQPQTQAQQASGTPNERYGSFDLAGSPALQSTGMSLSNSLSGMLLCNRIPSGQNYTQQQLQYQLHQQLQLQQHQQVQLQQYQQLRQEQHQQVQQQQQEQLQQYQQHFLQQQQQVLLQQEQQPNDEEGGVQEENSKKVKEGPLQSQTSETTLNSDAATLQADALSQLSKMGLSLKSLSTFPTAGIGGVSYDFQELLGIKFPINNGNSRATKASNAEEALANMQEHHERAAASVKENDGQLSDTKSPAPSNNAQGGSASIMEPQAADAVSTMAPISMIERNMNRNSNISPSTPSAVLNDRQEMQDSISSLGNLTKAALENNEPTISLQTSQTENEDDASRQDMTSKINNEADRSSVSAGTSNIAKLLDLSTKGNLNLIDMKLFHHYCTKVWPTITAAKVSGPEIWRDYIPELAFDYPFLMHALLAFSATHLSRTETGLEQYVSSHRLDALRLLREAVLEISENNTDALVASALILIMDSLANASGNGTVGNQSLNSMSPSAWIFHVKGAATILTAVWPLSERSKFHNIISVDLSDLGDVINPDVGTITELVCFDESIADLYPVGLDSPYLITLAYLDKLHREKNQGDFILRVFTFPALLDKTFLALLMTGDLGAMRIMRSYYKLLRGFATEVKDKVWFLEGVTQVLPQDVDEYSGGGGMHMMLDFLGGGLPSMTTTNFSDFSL
Protocol: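 Universal 'all 10-mer' protein binding microarrays (Agilent AMADID 015681) probed with GST-tagged S. cerevisiae TFs (full-length or DBD) made by in vitro transcription/translation (PURExpress), about 100-200 nM. Bound TF was detected with fluorescent anti-GST. Each ungapped 8-mer (which stands for itself and its reverse complement) is scored by the PBM enrichment score (E-score), a modified Wilcoxon-Mann-Whitney statistic from -0.5 to +0.5, computed with the Universal PBM Analysis Suite. Scale: above 0.35 generally sequence-specific binding.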

Row | Sequence | PBM E-score
1 | GATACACA | -0.0452
2 | CATTTTGG | -0.12
3 | CTAAATCA | -0.00665
4 | AGAAATAG | -0.0417
5 | ACTTCTAA | 0.00078
6 | GCCCGTCC | -0.239
7 | TACTTGCA | 0.0403
8 | ACGGTACG | 0.408
9 | CCTACATA | -0.195
10 | GGGTCTGA | -0.274
11 | AGTCGAAA | 0.0125
12 | AGGTTCTG | 0.0443
13 | GTGGCATA | -0.0936
14 | TGCCAGAA | -0.187
15 | GAGAAGAA | 0.0432
16 | ACTGAGAG | -0.236
17 | AGCGATTG | 0.0959
18 | AGTAGCTC | -0.145
19 | ATATGCCG | 0.196
20 | TAGTTTCA | -0.0469
21 | GTAAATAA | 0.191
22 | GACAGTCA | 0.0137

Row | Sequence | PBM E-score
23 | AGGACATA | -0.0275
24 | GACATAAA | 0.0378
25 | GTCCTGTA | 0.0245
26 | GTATCCTA | 0.053
27 | CACAGACG | -0.14
28 | TACATGAA | 0.131
29 | CACCTCGG | 0.0436
30 | ACTGGACT | -0.307
31 | GGAACTCC | -0.0932
32 | AAGGCATC | 0.0322
33 | CTAAAGCA | -0.0624
34 | ATGTATCG | 0.226
35 | ATCAGGTG | -0.13
36 | GTGTAAAC | 0.17
37 | CTAGAGTC | -0.259
38 | AGAGACTC | 0.0674
39 | CGAGTGCG | 0.14
40 | AGCCAACC | 0.0299
41 | AAGACGAC | 0.133
42 | TGAGATCA | -0.118
43 | CTTCTTCC | -0.211
44 | ACCGGGGA | -0.186

Row | Sequence | PBM E-score
45 | ACACTGCA | -0.0747
46 | ACGTTTGG | 0.309
47 | CGCGTCAG | -0.163
48 | GAGAGGAA | -0.049
49 | ATACTCAT | -0.111
50 | ACCAGAAC | 0.0633
51 | AGAAAGGA | -0.227
52 | ATTTAACA | 0.0412
53 | AATCAAAT | -0.133
54 | AGGCAGGC | -0.19
55 | ATGGACAA | 0.0246
56 | AGGGTATG | -0.00582
57 | CCAATTCC | -0.12
58 | ATTATCGC | 0.0165
59 | CGGAAAAA | 0.207
60 | AACTGTGG | -0.257
61 | ACCTGGGC | -0.155
62 | GGTTGAAC | 0.0628
63 | CATTAACG | 0.304
64 | AAGAATCA | -0.103
65 | GCGTGTCC | -0.0381
66 | ACACATGT | 0.058

Row | Sequence | PBM E-score
67 | CATTCAGA | -0.287
68 | ATCCGCTA | 0.0682
69 | ACTACTTG | -0.241
70 | ATTTCTAC | 0.181
71 | GCACGTGA | -0.0226
72 | AACTTAAC | 0.191
73 | GAAGCACA | -0.111
74 | CAATCCCG | -0.116
75 | ATACCGTG | -0.0415
76 | CCCCGGGG | 0.0309
77 | GCACTCAA | -0.142
78 | ACCCCGGA | -0.106
79 | TGTACACA | 0.0892
80 | ATTAAGAC | 0.0381
81 | CCTGATTC | -0.124
82 | ATATCACG | -0.114
83 | CGCATAAA | 0.191
84 | AAAGGATT | -0.226
85 | CAACCACA | -0.0947
86 | CTGACAAA | -0.0299

From the supplement of paper PMC3334620
